From publication PMC4336329 (PLoS ONE, 2015)
In all, about 310,000 compounds went through this assay and about 14,000 (4.5%) showed an effect of 50% or more. Effects have a minus sign here. Some of the results follow.

Molecular target: human ether-à-go-go-related gene (hERG) potassium channel (human, UniProt Q12809)
Test: primary screen, population patch clamp on CHO cells stably expressing hERG
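Note: peak tail current of the secondary pulse compared with the same well before compound.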

Chain of human ether-à-go-go-related gene (hERG) potassium channel (Q12809 whole entry, looked up): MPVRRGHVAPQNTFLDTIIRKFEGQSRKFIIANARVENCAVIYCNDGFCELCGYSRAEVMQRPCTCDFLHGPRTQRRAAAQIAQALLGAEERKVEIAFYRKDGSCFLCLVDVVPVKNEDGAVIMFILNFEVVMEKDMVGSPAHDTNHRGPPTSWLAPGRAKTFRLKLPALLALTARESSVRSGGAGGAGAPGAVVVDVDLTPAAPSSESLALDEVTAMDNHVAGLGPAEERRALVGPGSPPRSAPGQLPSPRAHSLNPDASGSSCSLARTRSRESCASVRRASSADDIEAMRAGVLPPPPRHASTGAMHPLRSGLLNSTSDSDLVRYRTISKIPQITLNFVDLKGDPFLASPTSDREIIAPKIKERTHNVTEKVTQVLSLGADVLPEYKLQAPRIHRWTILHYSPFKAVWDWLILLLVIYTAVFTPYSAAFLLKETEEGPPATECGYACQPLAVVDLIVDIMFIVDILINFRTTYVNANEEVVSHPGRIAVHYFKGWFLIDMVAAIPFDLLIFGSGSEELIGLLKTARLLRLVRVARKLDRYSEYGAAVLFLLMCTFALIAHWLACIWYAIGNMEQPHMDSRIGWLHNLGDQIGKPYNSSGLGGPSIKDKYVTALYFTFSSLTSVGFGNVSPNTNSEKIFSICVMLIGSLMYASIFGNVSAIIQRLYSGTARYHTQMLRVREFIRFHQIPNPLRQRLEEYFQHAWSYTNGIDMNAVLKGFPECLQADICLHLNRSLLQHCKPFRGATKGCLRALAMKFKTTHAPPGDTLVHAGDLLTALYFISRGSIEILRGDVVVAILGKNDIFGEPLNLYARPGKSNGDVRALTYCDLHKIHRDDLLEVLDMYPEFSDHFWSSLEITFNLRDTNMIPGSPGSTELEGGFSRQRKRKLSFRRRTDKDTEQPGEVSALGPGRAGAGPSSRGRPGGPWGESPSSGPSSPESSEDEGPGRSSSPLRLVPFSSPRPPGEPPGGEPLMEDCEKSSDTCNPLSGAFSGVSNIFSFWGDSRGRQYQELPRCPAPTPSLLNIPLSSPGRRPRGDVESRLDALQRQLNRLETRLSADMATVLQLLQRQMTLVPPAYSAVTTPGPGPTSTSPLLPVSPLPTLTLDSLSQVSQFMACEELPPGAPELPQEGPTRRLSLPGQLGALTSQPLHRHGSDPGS

Row | SMILES | hERG current change (%, negative = inhibition) at 10uM
1 | Cc1ccc(NC2=CC(=O)CC(C)(C)C2)cc1F | 6.87%
2 | O=C(O)CN1C(=O)SC(Nc2ccc(C(=O)O)cc2)C1=O (centres unmarked) | 4.35%
3 | Cn1c(CC(=O)Nc2ccc(Cl)c(Cl)c2)nnc1SCC(=O)N1CCN(c2ccccc2)CC1 | -33%
4 | CCN(CC(=O)Nc1c(F)cccc1F)C(=O)c1ccc(C(=O)c2ccccc2)cc1 | -18.1%
5 | COCCN(C(=O)COC(=O)/C=C/c1ccc(C(F)(F)F)cc1)c1c(N)n(Cc2ccccc2)c(=O)[nH]c1=O | -11.4%
6 | Oc1ccc(Cl)cc1C=Nc1ccccc1Br | 11.8%
7 | CCOc1ccccc1NC(=O)N1CCCC(c2nc3c(nnn3Cc3ccc(C)cc3)c(=O)[nH]2)C1 (centres unmarked) | -22.7%
8 | CC1CC(C)CN(C(=O)COC(=O)Cc2c[nH]c3ccccc23)C1 (centres unmarked) | 6.66%
9 | CS(=O)(=O)N(CC(N)=O)c1ccc2c(c1)OCO2 | 15.7%
10 | O=C(Cc1cccs1)N(Cc1cccs1)C1(C(=O)NC2CCCC2)CCCCC1 | 0.498%
11 | COc1ccc(/C=N/Nc2cc(=O)n(C)c(=O)n2C)cc1OC | 17%
12 | Cc1csc(=Nc2c(C)n(C)n(-c3ccccc3)c2=O)n1-c1ccccc1 | 18.1%
13 | O=C(CN1CCN(C(=O)c2ccccc2)CC1)Nc1ccccc1 | -20.1%
14 | O=C(c1cccs1)N(Cc1ccc(Cl)cc1)C1CCS(=O)(=O)C1 (centres unmarked) | -41.9%
15 | CC(=O)NC(CC(=O)N(C)Cc1cccc(Cl)c1Cl)c1ccccc1 (centres unmarked) | -16.8%
16 | COc1ccc(N2CCN(C(=O)C3CCCN(S(=O)(=O)c4ccc(F)cc4)C3)CC2)cc1 (centres unmarked) | -39.2%
17 | O=C(CCC(=O)N1CCN(S(=O)(=O)c2ccc(Cl)cc2)CC1)NC1CCCc2ccccc21 (centres unmarked) | -52.6%
18 | Cc1ccc(C)c(Nc2nc3c(S(=O)(=O)c4ccccc4)nnn3c3ccccc23)c1 | -3.68%
19 | C/C=N\NC(=O)COc1cc(C)ccc1C | 14.4%
20 | Cc1ccc(/C=N/NC(=O)C2(O)c3ccccc3-c3ccccc32)o1 | -0.955%
21 | Cn1c(=O)c([N+](=O)[O-])c(NCC2CCCO2)c2ccccc21 (centres unmarked) | 0.511%
22 | O=S(=O)(Nc1ccccc1)c1ccc(S(=O)(=O)N2CCCC2)cc1 | -26.7%

Row | SMILES | hERG current change (%, negative = inhibition) at 10uM
23 | CCc1ccc(/C=C2/SC(=S)N(CCC(=O)Nc3ccc(C(=O)O)cc3)C2=O)cc1 | 12.5%
24 | CN(CCCS(=O)(=O)[O-])c1ccc(/C=C/c2ccc3ccccc3[n+]2C)cc1 | 19.6%
25 | CC(=O)Nc1ccc(C(=O)CSc2nnnn2C2CCCC2)cc1 | 0.223%
26 | Cl.c1ccc(Cn2nnnc2CN2CCCC2)cc1 | 2.31%
27 | Cc1cc(C)nc(N2CCC(C(=O)Nc3ccc4c(c3)OCCO4)CC2)n1 | 17.5%
28 | O=C(CSc1ccc2nnc(CCNC(=O)c3ccc(F)cc3)n2n1)NCc1ccco1 | 12.9%
29 | CCc1nc2ccccc2c(C(=O)Nc2ccc(C)cc2)c1C | 22.3%
30 | CCCCC(=O)Nc1nnc(SCC(=O)NC2CCCC2)s1 | 17.2%
31 | COc1ccc(OC)c(S(=O)(=O)NCc2cn3c(C)csc3n2)c1 | 0.79%
32 | CC1(c2ccccc2Cl)NC(=O)N(CC(=O)NCCC2=CCCCC2)C1=O (centres unmarked) | 6.16%
33 | COc1ccc(NC(=O)c2ccccc2NC(=O)CSc2ccccc2)cc1 | 22.7%
34 | CC(=O)Nc1ccc(S(=O)(=O)N(C)CC(=O)OCC(=O)Nc2cccnc2Cl)cc1 | 5.81%
35 | COc1ccc(NS(=O)(=O)c2ccc(NS(=O)(=O)c3cccs3)cc2)cc1 | 11.8%
36 | COc1cccc(N2CCN(C(=O)c3ccc4nc(N5CCC(C)CC5)sc4c3)CC2)c1 | -10.9%
37 | CC(C)C(=O)Nc1cccc(C(=O)Nc2ccc3c(c2)OCO3)c1 | -2.67%
38 | NC(N)=N/N=C/c1ccc(N2CCOCC2)cc1.O=[N+]([O-])O | 6.58%
39 | CCC(Oc1cc(Cl)ccc1Cl)C(=O)N1CCCN(C)CC1 (centres unmarked) | 1.73%
40 | Cc1ccc(N(C(=O)c2csnn2)C(C(=O)NCc2ccccc2)c2ccccn2)cc1 (centres unmarked) | -15.2%
41 | CC(C)C(C(=O)O)N1C(=O)/C(=C/C=C/c2ccco2)SC1=S (centres unmarked) | 15.4%
42 | CC(C)CCN1CCN(Cc2ccc(Sc3nncn3C)o2)CC1CCO (centres unmarked) | 7.49%
43 | O=C(CN1C(=O)CCC1=O)Nc1nc(-c2ccccn2)cs1 | 19.8%
44 | CC1CCN(CCOc2ccc(C(=O)c3ccccc3)cc2)CC1.O=C(O)C(=O)O | -47.5%

Row | SMILES | hERG current change (%, negative = inhibition) at 10uM
45 | COC(=O)Cn1cc(/C=C2\C(=O)NC(=O)N(c3ccc(OC)cc3)C2=O)c2ccccc21 | 12.5%
46 | CC1CCCC(C)N1/N=C/c1cccc(Br)c1 (centres unmarked) | -18.5%
47 | O=C(COC(=O)c1cccc(Br)c1)Nc1ccc2[nH]c(=O)[nH]c2c1 | 18.3%
48 | CN(C)c1cccc(C(=O)N/N=C/c2ccoc2)c1 | -8.11%
49 | COC(=O)c1ccc(NC(=O)Cn2cnc3c(nnn3-c3cccc(OC)c3)c2=O)cc1 | 3.08%
50 | CC(Sc1ccsc1[N+](=O)[O-])C(=O)NCc1ccccc1 (centres unmarked) | 20.1%
51 | CCOc1ccc(NC(=O)CN2CCN(CC(=O)Nc3cc(OC)cc(OC)c3)CC2)cc1 | -74.9%
52 | CCn1c(NC(C)=O)nc2ccccc21 | 11.9%
53 | COc1ccc(S(=O)(=O)/N=C2/NC(=O)/C(=C\c3cc(OC)c(OC)cc3[N+](=O)[O-])S2)cc1 | 15.2%
54 | CC(=O)Nc1ccc(OC(=O)c2cc3cc(Br)cc(Br)c3oc2=O)cc1 | 2.2%
55 | Cc1ccc(NC(=O)CCSCCC(=O)Nc2ccc(C)c(C)c2)cc1C | -10%
56 | CCN(CCNC(=O)C1CCCN(Cc2nc(-c3ccc(OC)cc3)oc2C)C1)c1ccccc1 (centres unmarked) | -28.1%
57 | O=C(Nc1ncccc1O)C1CCN(S(=O)(=O)c2ccc3ccccc3c2)CC1 | -0.129%
58 | CCc1ccc(CNC(=O)c2cc3c(C)nc4ccccc4c3o2)cc1 | -11.5%
59 | CCC(=O)Nc1ccc(C(=O)NCCCn2ccnc2)cc1 | 22.8%
60 | CC(=O)c1cccc(NC(=O)NNC(=O)CCC(=O)Nc2ccc(C)c(C)c2)c1 | 49.5%
61 | Cc1cc(N=Cc2cc(Br)ccc2O)no1 | -4.77%
62 | Cc1nnc(SCc2cccc([N+](=O)[O-])c2)[nH]c1=O | -16.5%
63 | CCCn1c(N)c(N(CCOC)C(=O)CCC2CCCCC2)c(=O)[nH]c1=O | 6.04%
64 | CC(C)n1cc(C(=O)N2CCCC(Nc3ccc(F)c(F)c3)C2)cn1 (centres unmarked) | 10.3%
65 | CC1CCN(C(=O)CSc2nc(N)c(NC(=O)c3ccccc3)c(=O)[nH]2)CC1 | 6.82%
66 | Oc1ccc(O)c(Cc2nc3ccccc3s2)c1 | 12.1%

Row | SMILES | hERG current change (%, negative = inhibition) at 10uM
67 | COc1ccc(N(CC(=O)Nc2cc(C)on2)S(=O)(=O)c2cc(C)ccc2C)cc1 | -21.7%
68 | CCCCOC(=O)c1ccc(NC(=O)c2cc(Cl)ccc2OC)cc1 | 2.36%
69 | CC(C)c1ccc(NC(=O)CSc2nc3ccsc3c(=O)n2CCC(=O)O)cc1 | -5.01%
70 | Cc1ccc(NC(=O)c2ccccc2N(C)S(C)(=O)=O)cc1C | 21.6%
71 | O=C1CSc2ccccc2N1Cc1ccccc1F | -55.8%
72 | COc1ccc(-c2nc(N/N=C(\C)c3ccc(O)cc3)c3ccccc3n2)cc1 | 19%
73 | O=C(CN1CCC(C(=O)c2ccc(F)cc2)CC1)Nc1ccccc1Cl | -20.5%
74 | CC1Nc2ncnc(N3CCOCC3)c2N(Cc2ccc(Cl)cc2)C1=O.O=C(O)C(F)(F)F (centres unmarked) | -9.85%
75 | Cc1ccc(-c2nnc(C)c(N3CCCC3)n2)cc1 | 13%
76 | CCC(C)(C)n1nnnc1C(c1ccc(O)c(OC)c1)N1CCc2ccccc2C1.Cl (centres unmarked) | -19.7%
77 | O=C(Nc1ccc2c(c1)OCO2)c1cc2n(n1)C(C(F)(F)F)CC(c1ccccc1)N2 (centres unmarked) | 2.64%
78 | Cc1nn(C(C)C(=O)NC(C)CCc2ccccc2)c(=O)c2cc3occc3n12 (centres unmarked) | -13.7%
79 | O=C(CCSCc1ccccc1)Nc1ccc2c(c1)OCCO2 | 11.9%
80 | CC(C)(C)c1ccc(-c2cc(-c3ccccc3O)[nH]n2)cc1 | 20.5%
81 | Cc1noc(NS(=O)(=O)c2ccc(NC(=O)c3ccc(N(C)C)cc3)cc2)c1C | 12.2%
82 | N/C(=N\OC(=O)c1cccc(Cn2cc(C(F)(F)F)ccc2=O)c1)c1ccc(Cl)cc1 | -13.8%
83 | Cc1[nH]c2ccccc2c1C(C[N+](=O)[O-])c1cccs1 (centres unmarked) | -14.2%
84 | CC(=O)Nc1ccc(NC(=O)C2CCN(C(=O)c3cccs3)CC2)cc1 | 15.9%
85 | CCOC(=O)N1CCN(C(=S)NC(=O)c2cncc(Br)c2)CC1 | 6.86%
86 | COc1ccc(NC(=O)C2CCCN2C(=O)OCc2ccccc2)c(OC)c1 (centres unmarked) | -7.86%
